Source: the supplement of paper PMC8047034
Counter-ions that a name gives are not always drawn. This is one part of the list. Many values rest on one well or one pass, so single values are uncertain.

system: Ov4Carbo; test: log2 surviving fraction (library drug vs vehicle, or drug + carboplatin vs carboplatin alone; relative to plate median); ovarian cancer lines: OVCAR4 is platinum-sensitive and Ov4Carbo platinum-resistant; higher = more cell survival; conditions: library drug concentration 10 µM; 7 days; carboplatin co-treatment 0 µM

Q: For `Nc1nc(N)c2nc(-c3ccccc3)c(N)nc2n1` [triamterene], which log2 surviving fraction is on record?
A: Its log2 surviving fraction is -0.0677.

Q: `CCC(=O)O[C@]1(C(=O)SCF)[C@H](C)C[C@H]2[C@@H]3C[C@H](F)C4=CC(=O)C=C[C@]4(C)[C@@]3(F)[C@@H](O)C[C@@]21C` [Fluticasone propionate (Flonase, Veramyst)] was tested. Which log2 surviving fraction did it give?
A: The log2 surviving fraction was 0.604.

Q: `CCN1CCN(C(=O)N[C@@H](C(=O)N[C@@H]2C(=O)N3[C@@H]2SC(C)(C)[C@@H]3C(=O)O)c2ccccc2)C(=O)C1=O` [Piperacillin Sodium] was tested. Which log2 surviving fraction did it give?
A: Its log2 surviving fraction is 0.0701.

Q: For `CC#CCn1c(N2CCC[C@@H](N)C2)nc2c1c(=O)n(Cc1nc(C)c3ccccc3n1)c(=O)n2C` [Linagliptin (BI-1356)], which log2 surviving fraction is on record?
A: Its log2 surviving fraction is -1.21.

Q: How did the log2 surviving fraction turn out when `C#CCN[C@@H]1CCc2ccccc21` [Rasagiline mesylate] was run?
A: Its log2 surviving fraction is 0.0252.

Q: Which log2 surviving fraction does the source give for `CCN1CCN(c2cc(-c3ccc(F)cc3)c3c(n2)CCCCCC3)CC1` [Blonanserin (Lonasen)] here?
A: Its log2 surviving fraction is -0.324.

Q: Which log2 surviving fraction does the source give for `CC[C@H]1OC(=O)C[C@@H](O)[C@H](C)[C@@H](O[C@@H]2O[C@H](C)[C@@H](O)[C@H](N(C)C)[C@H]2O)[C@@H](CCN2C[C@H](C)C[C@H](C)C2)C[C@@H](C)C(=O)/C=C/C(C)=C/[C@@H]1CO[C@@H]1O[C@H](C)[C@@H](O)[C@@H](OC)[C@H]1OC` [Tilmicosin] here?
A: The log2 surviving fraction was 0.974.

Q: Which log2 surviving fraction does the source give for `C[N+](C)(C)C[C@H](O)CC(=O)[O-]` [L-carnitine (Levocarnitine)] here?
A: Its log2 surviving fraction is 1.32.

Q: Which log2 surviving fraction does the source give for `Fc1ccc(C(c2ccc(F)cc2)N2CCN(C/C=C/c3ccccc3)CC2)cc1` [Flunarizine 2HCl] here?
A: The log2 surviving fraction was -1.66.

Q: For `CCCNC(C)C(=O)Nc1ccccc1C` (centres undefined) [Prilocaine], which log2 surviving fraction is on record?
A: The log2 surviving fraction was 0.179.

Q: How did the log2 surviving fraction turn out when `C[C@]12CC[C@H](O)CC1=CC[C@@H]1[C@@H]2CC[C@]2(C)C(=O)CC[C@@H]12` [Dehydroepiandrosterone (DHEA)] was run?
A: Its log2 surviving fraction is 0.65.

Q: For `Nc1ncnc2c1ncn2[C@@H]1O[C@H](COP(=O)(O)OP(=O)(O)OP(=O)(O)O)[C@@H](O)[C@H]1O` [ATP (Adenosine-Triphosphate)], which log2 surviving fraction is on record?
A: The log2 surviving fraction was 1.24.

Q: How did the log2 surviving fraction turn out when `CCc1c(Cl)c(O)c(Cl)c(O)c1C(=O)O[C@H]1[C@H](O)[C@H](OC)[C@H](OC/C2=C\C=C\C[C@H](O)/C(C)=C/[C@H](CC)[C@@H](O[C@@H]3OC(C)(C)[C@@H](OC(=O)C(C)C)[C@H](O)[C@@H]3O)/C(C)=C/C(C)=C/C[C@@H]([C@@H](C)O)OC2=O)O[C@@H]1C` [Fidaxomicin] was run?
A: The log2 surviving fraction was 0.283.

Q: Which log2 surviving fraction does the source give for `Clc1ccc2c(c1)C(N1CCNCC1)=Nc1ccccc1O2` [Amoxapine] here?
A: The log2 surviving fraction was -2.36.

Q: How did the log2 surviving fraction turn out when `Cc1cccc(C)c1NC1=NCCCS1` [Xylazine HCl] was run?
A: Its log2 surviving fraction is 1.05.

Q: How did the log2 surviving fraction turn out when `CCN[C@H]1CN(CCCOC)S(=O)(=O)c2sc(S(N)(=O)=O)cc21` [Brinzolamide] was run?
A: The log2 surviving fraction was 2.6.

Q: With `CNCCCC12CCC(c3ccccc31)c1ccccc12` [Maprotiline hydrochloride] as the compound, how does the log2 surviving fraction read?
A: The log2 surviving fraction was -1.

Q: With `CN1CCN(c2c(F)cc3c(=O)c(C(=O)O)cn4c3c2OCN4C)CC1` [Marbofloxacin] as the compound, how does the log2 surviving fraction read?
A: Its log2 surviving fraction is 0.875.

Q: For `OCCOCCN1CCN(C(c2ccccc2)c2ccc(Cl)cc2)CC1` (centres undefined) [Hydroxyzine 2HCl], which log2 surviving fraction is on record?
A: Its log2 surviving fraction is 0.356.

Q: Which log2 surviving fraction does the source give for `Cc1onc(-c2ccccc2)c1C(=O)N[C@@H]1C(=O)N2[C@@H]1SC(C)(C)[C@@H]2C(=O)O` [Oxacillin sodium monohydrate] here?
A: The log2 surviving fraction was 0.218.

Q: For `O=S(=O)(O)CCS` [Mesna (Uromitexan, Mesnex)], which log2 surviving fraction is on record?
A: The log2 surviving fraction was 0.674.

Q: For `CCC[C@@H]1C[C@@H](C(=O)N[C@@H]([C@H]2O[C@H](SC)[C@H](O)[C@@H](O)[C@H]2O)[C@H](C)Cl)N(C)C1` [Clindamycin], which log2 surviving fraction is on record?
A: Its log2 surviving fraction is -0.0168.

Q: With `O=C(O[C@H]1C[C@H]2CC[C@@H](C1)[N+]21CCCC1)C(O)(c1ccccc1)c1ccccc1` [Trospium chloride (Sanctura)] as the compound, how does the log2 surviving fraction read?
A: The log2 surviving fraction was -0.9.

Q: Which log2 surviving fraction does the source give for `CCCCCCOC(=O)NC(=N)c1ccc(NCc2nc3cc(C(=O)N(CCC(=O)OCC)c4ccccn4)ccc3n2C)cc1` [BIBR-1048 (Dabigatran)] here?
A: The log2 surviving fraction was 0.158.

Q: For `Clc1ccc(COC(Cn2ccnc2)c2ccc(Cl)cc2Cl)c(Cl)c1` (centres undefined) [Miconazole nitrate], which log2 surviving fraction is on record?
A: The log2 surviving fraction was -6.94.

Q: `CCOC(=O)[C@H](CCc1ccccc1)N[C@H]1CCc2ccccc2N(CC(=O)O)C1=O` [Benazepril hydrochloride] was tested. Which log2 surviving fraction did it give?
A: The log2 surviving fraction was 0.729.

Q: How did the log2 surviving fraction turn out when `COc1ccc(CNc2nc(N3CCC[C@H]3CO)ncc2C(=O)NCc2ncccn2)cc1Cl` [Avanafil] was run?
A: The log2 surviving fraction was -0.358.

Q: `NCCNCCNCCNCCN` [Tetraethylenepentamine 5HCl] was tested. Which log2 surviving fraction did it give?
A: Its log2 surviving fraction is -2.03.

Q: `Nc1[nH]cnc2ncnc1-2` [Adenine hydrochloride] was tested. Which log2 surviving fraction did it give?
A: The log2 surviving fraction was 1.1.

Q: For `Nc1nc(N)nc(NC2CC2)n1` [Cyromazine], which log2 surviving fraction is on record?
A: The log2 surviving fraction was -0.69.

Q: With `Cc1cc(NS(=O)(=O)c2ccc(N)cc2)no1` [Sulfamethoxazole] as the compound, how does the log2 surviving fraction read?
A: Its log2 surviving fraction is 0.772.

Q: Which log2 surviving fraction does the source give for `CCn1nc(C(=O)O)c(=O)c2cc3c(cc21)OCO3` [Cinoxacin] here?
A: The log2 surviving fraction was -0.637.

Q: `CCN(CC)C(=O)C1(c2ccccc2)CC1CN` (centres undefined) [Milnacipran HCl] was tested. Which log2 surviving fraction did it give?
A: Its log2 surviving fraction is -1.16.

Q: With `Clc1ccc(C(Cn2ccnc2)OCc2c(Cl)cccc2Cl)c(Cl)c1` (centres undefined) [Isoconazole nitrate (Travogen)] as the compound, how does the log2 surviving fraction read?
A: Its log2 surviving fraction is -1.09.

Q: Which log2 surviving fraction does the source give for `NCCCC[C@H](N[C@@H](CCc1ccccc1)C(=O)O)C(=O)N1CCC[C@H]1C(=O)O` [Lisinopril (Zestril)] here?
A: Its log2 surviving fraction is 1.68.

Q: How did the log2 surviving fraction turn out when `CN1CCC[C@H]1c1cccnc1` [Nicotine Ditartrate] was run?
A: Its log2 surviving fraction is 0.976.

Q: For `CCN(C)C(=O)Oc1cccc([C@H](C)N(C)C)c1` [Rivastigmine tartrate (Exelon)], which log2 surviving fraction is on record?
A: The log2 surviving fraction was 1.6.

Q: How did the log2 surviving fraction turn out when `COc1ccccc1OCC(O)COC(N)=O` (centres undefined) [Methocarbamol (Robaxin)] was run?
A: Its log2 surviving fraction is 0.347.

Q: Which log2 surviving fraction does the source give for `C[C@]12CC[C@@H]3c4ccc(O)cc4CC[C@H]3[C@@H]1CC[C@@H]2O` [Estradiol] here?
A: The log2 surviving fraction was -0.333.
